This passage reports survival results from PubChem BioAssay AID463173 (ICCB-Longwood Screening Facility, Harvard Medical School, 2010).

About 4,300 (8.3%) of roughly 52,000 compounds were called active. No stated cut-off is given here; in the data, active means survival mostly below about 52% (no sharp cut-off); inactive means mostly above about 56%. Some of the results follow.

The assay concerns DeltatarO mutant. Kind of assay: growth inhibition of S. aureus wild type versus tarO mutant, primary screen, teichoic acid synthesis inhibitors, RN4220, OD600 (AID 463173). As to conditions: OD600, 18 h, stronger effect = lower value, screened at 18.75 µg/mL (by protocol).
Turning to `CCOc1ccccc1NC(=O)c1cn(C2CCCC2)c(=O)c2c1c1ccccc1n2C`, the survival was inactive: 122%.

As to `COc1ccccc1NC(=O)C1=C(C)Nc2nc(SCc3ccccc3)nn2C1c1ccccn1` (stereo unspecified), the survival is inactive: 65%. As for `CN(C)c1nc(Nc2ccccc2)nc(N(C)C)n1`, the survival was inactive: 78%. `COc1ccc(-n2c(=O)c3sc4ccccc4c3n(CC(=O)Nc3cccc(C)c3)c2=O)cc1`: the survival was inactive: 72%. For the molecule `CCc1cc(C#N)c(O)cn1`, the survival is inactive: 91%. For the molecule `COc1ccccc1NC(=O)c1cc(S(=O)(=O)N(C)C2CCCCC2)ccc1F`, the survival was inactive: 85%. Regarding `O=C(/C=C/c1ccco1)NC(=S)Nc1ccccc1O`, the survival is inactive: 100%. `Cc1ccc(NC(=O)C(Cc2ccccc2)NS(=O)(=O)c2ccc3c(c2)oc(=O)n3C)c(Cl)c1` (stereo unspecified): the survival was inactive: 95%. On to `CCOC(=O)N1CCc2c(sc3c2c(=O)n(CCc2ccccc2)c(=O)n3Cc2cc(C)ccc2C)C1`, for which the survival was inactive: 75%.

With `COCCNC(=O)Cn1cc(S(=O)(=O)Cc2ccccc2Cl)c2ccccc21`, the survival was inactive: 124%. With `Cc1cccc(-c2nc(SCC(=O)Nc3cc(C)on3)c3c(=O)n(C)c(=O)n(C)c3n2)c1`, the survival is inactive: 68%. On to `O=C(CSc1nc2ccccc2c(=O)[nH]1)c1ccc(O)cc1O`, for which the survival was inactive: 83%.

`COCCCNC(=O)c1ccc2c(c1)N=C(C)c1c(C)ccc(C)c1S2`: the survival is inactive: 69%.

Take `COc1ccc(N2CCN(c3ccc(-c4nc(-c5ccccc5C)no4)cc3[N+](=O)[O-])CC2)cc1`: the survival was inactive: 63%.

With `Cc1ccc(NC(=O)N2CCC(N3CCN(Cc4ccccc4)C(=O)C3=O)CC2)cc1Cl`, the survival was inactive: 75%. The figure for `Cc1nnc(NC(=O)CSc2nccn2-c2cccc(Cl)c2)s1` is inactive: 77%; for `CC1CCCN(S(=O)(=O)c2cc3c(cc2Cl)NC(=O)CO3)C1` (stereo unspecified) it is inactive: 94%. Consider `O=C(O)CC1NC(=O)N(c2ccccc2)C1=O` (stereo unspecified), for which the survival was inactive: 94%. Consider `Cc1nc2c(c(C)c1CCC(=O)Nc1cccc(C(F)(F)F)c1)c(=O)n(C)c(=O)n2C`, for which the survival is inactive: 84%. As to `O=C(CCC(=O)N1CC2CCCN2c2ccccc21)NCc1ccccc1Cl` (stereo unspecified), the survival is inactive: 69%. For the molecule `COc1ccc(C(=O)Nc2ccccc2C(=O)OCc2cc(=O)n3c4c(sc3n2)CCCC4)cc1`, the survival was inactive: 72%.

As for `COc1cc(OC)c(Nc2nc3ccc(C)cc3n3nnnc23)cc1Cl`, the survival was inactive: 130%. With `CN1C(=O)CC(N2CCN(C/C=C/c3ccccc3)CC2)C1=O` (stereo unspecified) the figure was inactive: 78%; with `COc1ccccc1CNc1nc2nc(C)c(Cl)c(C)n2n1`, inactive: 100%. On to `CO/N=C/c1ccc(OC)c(OC)c1`, for which the survival is inactive: 90%. As to `COC(=O)c1c(NC(=O)c2cccc(OC)c2)sc2c1CCC(C(C)(C)C)C2` (stereo unspecified), the survival is active: 43%. With `COc1ccc(CCN(Cc2nc3ccccc3c(=O)[nH]2)C(=O)c2ccco2)cc1`, the survival was inactive: 101%. Consider `Nc1nonc1-c1nc2ccccc2n1CC(=O)Nc1ccccc1C(=O)O`, for which the survival is active: 45%. With `CCOc1ccccc1N(CC)C(=O)c1ccc2c(=O)n3c(nc2c1)CCCCC3`, the survival was inactive: 112%. Consider `Cc1cccc(C)c1NC(=O)CSc1nc(-c2cccs2)cc(C(F)(F)F)n1`, for which the survival was inactive: 62%. Turning to `Cc1cn2c(=O)cc(COc3ccc(C(C)(C)C)cc3)nc2s1`, the survival was inactive: 70%. On to `CC(C)CCn1c(SCc2c(F)cccc2Cl)nc2ccsc2c1=O`, for which the survival was inactive: 94%.

For the molecule `O=C(Cn1c(=O)c2cccn2c2ccc(F)cc21)NCc1cccc(Cl)c1`, the survival was inactive: 80%.

`Cc1cc2nn(-c3ccccc3)nc2cc1NC(=O)Cc1ccc(Cl)cc1`: the survival is inactive: 89%. On to `CC(C)N(Cc1ccccc1)S(=O)(=O)c1ccc(N2CCCCS2(=O)=O)cc1`, for which the survival is inactive: 85%. For the molecule `CCCNS(=O)(=O)c1ccc(OCC(=O)N2CCCCC2)cc1`, the survival is inactive: 86%.

Regarding `CN(C)S(=O)(=O)c1ccc(C(=O)N(Cc2cccnc2)c2nc3c(F)cc(F)cc3s2)cc1`, the survival is inactive: 86%. Take `N#Cc1ccccc1Cn1c(SCC(=O)NCc2ccccc2)nc2ccccc21`: the survival was inactive: 72%.

`CN(C)S(=O)(=O)N1CCC(N2CCN(Cc3ccc(F)cc3)C(=O)C2=O)CC1`: the survival is inactive: 113%. On to `CC1=C(C(=O)N2CCCCC2)C(c2ccc(N(C)C)cc2)C2=C(CCCC2=O)N1` (stereo unspecified), for which the survival is inactive: 95%. With `CCc1cccc2c(-c3ccccc3)nc(SCC(=O)Nc3ccc(OC)cc3)nc12` the figure was inactive: 82%; with `CCOc1ccc2nc(NC(=O)c3nc(SC(C)C)ncc3Cl)sc2c1`, active: 41%. For `CC1CCN(C(=O)Cn2c(=O)n(-c3ccc(Cl)cc3)c(=O)c3c4c(sc32)CCC4)CC1`, the survival was inactive: 64%.

Consider `COc1ccc(-c2nsc(NC(=O)c3ccccc3Br)n2)cc1`, for which the survival was active: 34%.

Regarding `CC(C)(C)NC(=O)c1cccc(C(=O)NC(C)(C)C)c1`, the survival is inactive: 107%. For the molecule `COc1cc(NC(=O)C2CCCN(S(=O)(=O)c3cn(C)cn3)C2)cc(OC)c1` (stereo unspecified), the survival was inactive: 95%. As to `N#CC(C#N)=Cc1cn(CC(=O)Nc2ccccc2)c2ccccc12`, the survival was inactive: 66%. With `CC(=O)N1CCc2c(sc3c2c(=O)n(CCc2ccccc2)c(=O)n3Cc2ccc(F)cc2)C1`, the survival is inactive: 80%. On to `CN(C)S(=O)(=O)N1CCN(Cc2ccccc2)CC1`, for which the survival was inactive: 91%. Regarding `CCOc1ccc(NC(=O)c2sc3nc(-c4ccc(OC)cc4)cn3c2C)cc1`, the survival is inactive: 85%. For the molecule `Cc1ccccc1NC(=O)Cn1c(=O)n(CCCCCC(=O)NCc2ccc3c(c2)OCO3)c(=O)c2sccc21`, the survival is inactive: 84%. With `Cc1c(Cl)cccc1NC(=O)CSc1nc(=O)n(CCN2CCOCC2)c2c1CCC2`, the survival was inactive: 78%. With `CCc1ccc(-n2c(CCC(=O)O)ccc2-c2cccs2)cc1`, the survival was inactive: 52%.

Regarding `COc1ccc(-n2ccn(CC(=O)Nc3ccccc3C(F)(F)F)c(=O)c2=O)cc1OC`, the survival was inactive: 80%.

`Cc1nnc(N2CCN(C(=O)Nc3cc(F)ccc3F)CC2)c2nn(-c3ccc(Cl)cc3)c(C)c12`: the survival was inactive: 88%. Take `O=C(NC1CC(=O)N(c2ccc(Cl)cc2)C1)C(=O)c1c[nH]c2ccccc12` (stereo unspecified): the survival was inactive: 77%. Take `O=C(Nc1ccccc1)N1CCCC(c2nc(-c3cccs3)no2)C1` (stereo unspecified): the survival is inactive: 91%. Turning to `CCOC(=O)c1cc2c(=O)n3ccccc3nc2n(CC(C)C)c1=NC(=O)C(C)Oc1ccccc1` (stereo unspecified), the survival is inactive: 165%.

In the case of `CC(=O)Nc1ccc(NCc2nnc3n2CCCCC3)cc1`, the survival is inactive: 66%. For the molecule `Cc1ccc(Nc2ccc(N3CCN(C(=O)c4ccc([N+](=O)[O-])cc4Cl)CC3)nn2)cc1`, the survival was inactive: 120%. Turning to `CCN1CCCC1CNCC(=O)NC1(C)C2CCC(C2)C1(C)C` (stereo unspecified), the survival was inactive: 100%.

On to `CC(=O)c1ccc(NC(=O)CSc2nnc3ccc(-c4ccc(F)cc4)nn23)cc1`, for which the survival is inactive: 77%. Turning to `CCN(C(=O)c1sc2nc3n(c(=O)c2c1C)CCCC3)c1ccccc1F`, the survival was inactive: 80%. Turning to `Cc1ccc(CCNC(=O)c2cc(-c3ccccc3)n[nH]2)cc1`, the survival is inactive: 90%. Take `CN(C)c1ccc(C(CNC(=O)c2ccc(C(C)(C)C)cc2)N2CCCC2)cc1` (stereo unspecified): the survival was inactive: 103%. In the case of `COc1ccc(CNC(=O)CCc2c(C)nn(-c3ccc(N4CCOCC4)nn3)c2C)c(OC)c1`, the survival is inactive: 85%. With `Cc1cn2c(=O)cc(COc3ccc(NC(=O)c4ccc(C(C)(C)C)cc4)cc3)nc2s1`, the survival was inactive: 92%. For `Cc1cccc(NC(=O)C2CCCN2S(=O)(=O)c2cccc3nsnc23)c1C` (stereo unspecified), the survival is inactive: 67%. With `Cn1cc2ccc(N)cc2n1` the figure was inactive: 88%. `Cc1cccc(C)c1NC(=O)CCSc1nc(-c2ccc3c(c2)OCO3)cc(C(F)(F)F)n1`: the survival was inactive: 78%.

For `Fc1ccccc1C(NCCc1ccc(Cl)cc1)c1nnc(-c2ccccc2)o1` (stereo unspecified), the survival was active: -9%.

Take `O=C(Cn1nc(-c2ccccc2)ccc1=O)NCC1COCCO1` (stereo unspecified): the survival was inactive: 92%. Consider `COc1ccccc1NC(=O)CN(C)S(=O)(=O)c1cccc2cccnc12`, for which the survival is inactive: 103%. In the case of `Cc1ccc(Nc2ccc(N3CCN(C(=O)c4cccc([N+](=O)[O-])c4)CC3)nn2)cc1`, the survival was inactive: 85%. As to `O=C(CSc1ncc2c(n1)-c1ccccc1N(Cc1ccc(Cl)cc1)S2(=O)=O)c1ccc(Cl)cc1`, the survival is inactive: 92%. As to `CCOC(=O)c1ccc(NC(=O)CN2C(=O)C(C)(C)c3ccccc32)cc1`, the survival is inactive: 115%. On to `CCc1nc(C)ccc1O`, for which the survival is inactive: 62%. With `Cc1ccc(C)c(NC(=O)c2cnn(-c3ccc(F)cc3F)c2C2CCNCC2)c1` the figure was inactive: 83%; with `COc1ccc(NC(=O)CCS(=O)(=O)c2cc3c(cc2C)NC(=O)CO3)cc1Cl`, inactive: 100%. As for `CCCc1cnc2c(c1SCC(=O)Nc1ccc([N+](=O)[O-])cc1)c(=O)n(C)c(=O)n2C`, the survival is inactive: 66%. With `CCOC(=O)c1ccccc1NC(=O)N(Cc1ccc(CC)cc1)Cc1cn[nH]c1-c1ccc(OC)cc1`, the survival is inactive: 55%. For `Cc1ccc(C2CC(=O)n3nc(-c4ccc(F)cc4)nc3S2)cc1` (stereo unspecified), the survival is inactive: 80%. Regarding `Cc1cccc(NC(=O)c2cccc(N3CCCS3(=O)=O)c2)c1`, the survival was inactive: 78%. For `O=C(COc1ccc(F)cc1)Nc1ccc(OCc2cc(=O)n3ccsc3n2)cc1`, the survival is inactive: 80%. In the case of `Cc1ccccc1NC(=O)Cn1c(=O)n(CCC(=O)N2CCc3ccccc3C2)c(=O)c2ccccc21`, the survival is inactive: 86%. Turning to `Cc1ccc(CNC(=O)CN2Cc3ccccc3C2=O)cc1`, the survival is inactive: 87%. As to `COc1ccc(NS(=O)(=O)c2cc(-c3onc(C)c3C)ccc2C)c(OC)c1`, the survival was inactive: 89%. Turning to `CCC1CN(C(=O)N2CCC(C(=O)NCCCc3ccccc3)CC2)c2cc(C)ccc2O1` (stereo unspecified), the survival was inactive: 72%. `CN(Cc1ccccc1)C(=O)CSc1c2c(nc3ccc(Cl)cc13)CCCC2`: the survival is active: 0%. For `O=C(c1cccnc1Nc1ccccc1F)N1CCCCC1`, the survival was inactive: 108%.

`CNc1nc(SCC(=O)OC)nc(N2CCOCC2)n1`: the survival was inactive: 100%.
